# From publication PMC4336329 (PLoS ONE, 2015)
# In all, about 310,000 compounds went through this assay and about 14,000 (4.5%) showed an effect of 50% or more. Effects have a minus sign here. Some of the results follow.
# Target: human ether-à-go-go-related gene (hERG) potassium channel (human, UniProt Q12809)
# Test: primary screen, population patch clamp on CHO cells stably expressing hERG
# 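Also: peak tail current of the secondary pulse compared with the same well before compound.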
# Chain of human ether-à-go-go-related gene (hERG) potassium channel (Q12809 whole entry, looked up): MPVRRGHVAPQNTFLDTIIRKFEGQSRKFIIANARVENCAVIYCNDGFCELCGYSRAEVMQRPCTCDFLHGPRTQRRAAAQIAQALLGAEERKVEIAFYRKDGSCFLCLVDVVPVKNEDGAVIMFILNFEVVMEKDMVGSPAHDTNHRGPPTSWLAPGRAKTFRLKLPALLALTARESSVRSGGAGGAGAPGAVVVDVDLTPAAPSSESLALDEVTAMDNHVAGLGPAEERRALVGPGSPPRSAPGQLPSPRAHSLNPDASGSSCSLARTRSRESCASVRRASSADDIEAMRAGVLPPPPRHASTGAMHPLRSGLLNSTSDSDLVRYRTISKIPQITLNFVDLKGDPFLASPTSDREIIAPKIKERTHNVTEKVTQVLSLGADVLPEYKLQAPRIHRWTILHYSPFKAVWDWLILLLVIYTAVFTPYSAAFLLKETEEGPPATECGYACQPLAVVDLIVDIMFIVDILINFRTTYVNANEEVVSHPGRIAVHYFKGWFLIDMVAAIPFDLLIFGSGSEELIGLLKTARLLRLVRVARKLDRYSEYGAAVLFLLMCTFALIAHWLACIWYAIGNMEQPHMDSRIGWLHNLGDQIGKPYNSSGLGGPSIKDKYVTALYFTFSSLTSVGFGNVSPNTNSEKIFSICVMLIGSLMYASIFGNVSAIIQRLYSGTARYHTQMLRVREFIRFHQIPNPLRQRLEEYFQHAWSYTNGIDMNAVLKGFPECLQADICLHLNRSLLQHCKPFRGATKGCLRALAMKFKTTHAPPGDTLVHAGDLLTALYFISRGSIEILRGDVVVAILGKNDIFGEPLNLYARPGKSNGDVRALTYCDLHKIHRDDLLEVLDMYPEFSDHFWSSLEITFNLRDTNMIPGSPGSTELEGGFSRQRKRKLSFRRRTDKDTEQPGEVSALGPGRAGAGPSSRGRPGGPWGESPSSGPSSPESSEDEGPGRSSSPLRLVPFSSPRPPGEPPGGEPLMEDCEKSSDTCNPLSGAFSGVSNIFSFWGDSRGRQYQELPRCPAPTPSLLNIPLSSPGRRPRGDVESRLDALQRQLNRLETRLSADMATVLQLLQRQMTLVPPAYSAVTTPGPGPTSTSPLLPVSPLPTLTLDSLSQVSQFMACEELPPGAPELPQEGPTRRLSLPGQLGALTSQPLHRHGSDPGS
row,Structure (SMILES),"hERG current change (%, negative = inhibition) at 10uM [%]"
1,Cc1ccc(OCC(=O)N/N=C\c2ccc(O)cc2)c([N+](=O)[O-])c1,28.7
2,O=C(Oc1ccc(-c2nnco2)cc1)N1CCOCC1,1.23
3,O=S(=O)(c1ccccc1Br)N1CCN(c2ncccn2)CC1,0.297
4,Cc1ccc(-c2nnc3ccc(SCC(=O)Nc4cc(C)on4)nn23)cc1,-10.4
5,CCn1ncc(C2=NOC(C(=O)Nc3cccc(O)c3)C2)c1C (stereo not drawn),7.13
6,Nc1nnn(CC(=O)N/N=C/c2ccc(O)cc2)n1,44.9
7,Cc1nn(-c2ccccc2)c(N2CCCC2)c1/C=N/NC(=S)Nc1cc(C(F)(F)F)ccc1Cl,5.21
8,O=C(N/N=C/c1ccccc1[N+](=O)[O-])c1ccncc1,13.7
9,CCC(C(=O)O)n1c(C(F)(F)F)nc2ccccc21 (stereo not drawn),14.5
10,Cc1ccc2nc(-c3cccc(S(=O)(=O)N(C)C)c3)cn2c1,8.22
11,Cc1ccc(S(=O)(=O)CCc2nnc(NC(=O)c3ccco3)s2)cc1,12.2
12,COC(=O)c1cccc(N2C(=O)C3C4C=CC(CC4)C3C2=O)c1 (stereo not drawn),3.99
13,CCC(=O)Nc1ccc(Cl)c(NC(=O)c2c(OC)cccc2OC)c1,1.56
14,CCn1c2ccccc2c2cc(NC(=O)c3cccc([N+](=O)[O-])c3C)ccc21,7.76
15,NS(=O)(=O)c1ccc(CCNC(=O)c2cc(-c3ccc(Br)cc3)nc3ccccc23)cc1,12.1
16,Br.Cc1ccc(C(=O)CSc2nc3ccccc3o2)cc1,9.69
17,C[C@@H](CSc1ccccc1)CN1CC[C@H](O)CCC1=O,9.95
18,CN(c1ccccc1)S(=O)(=O)c1cc(C(=O)NCCCn2ccnc2)ccc1Cl,-60.3
19,Cc1cc(C(=O)OCC(=O)NCCc2ccccc2)c(C)o1,-7.25
20,COc1ccc(/C=C2\CCCC3C2=NN(C(=O)CSc2n[nH]c(N)n2)C3c2ccc(OC)cc2)cc1 (stereo not drawn),23.8
21,CCCc1cc(=O)oc2cc(C)cc(OCC(=O)NCCN3CCOCC3)c12,6.05
22,CN(CC(=O)Nc1ccc(Cl)cc1)C1=NS(=O)(=O)c2ccccc21,10.5
23,COc1cccc(CNC(=O)CSCC(=O)Nc2cc(C)on2)c1,13.9

row,Structure (SMILES),"hERG current change (%, negative = inhibition) at 10uM [%]"
1,CCN1CCN(C(=O)CSCc2nc(-c3ccc(OC)c(OC)c3)oc2C)CC1,-31.9
2,CC(C)N1CC(C(=O)Nc2ccc(C#N)cc2)CC1=O (stereo not drawn),2.45
3,NC(=S)N/N=C/c1ccc(-c2ccc(Cl)c(Cl)c2)o1,7.09
4,COC(=O)N/N=C/c1cn(Cc2ccccc2Cl)c2ccccc12,12.6
5,Cc1cccn2c(=O)c(/C=C(\C#N)C(=O)NC3CCS(=O)(=O)C3)c(N3CCC(C)CC3)nc12 (stereo not drawn),-33.5
6,Cn1ccnc1Sc1ccc(/C=N/NC(=O)c2ccccc2O)cc1[N+](=O)[O-],-7.21
7,CN(CC(=O)Nc1cccc(F)c1)C(=O)CCNC(=O)c1ccco1,16.7
8,Cn1c(C(=O)O)cc2cc(Oc3ccccc3)ccc21,6.78
9,CC(=O)c1ccc(-c2ccc(C(=O)NCC3CCCO3)o2)cc1 (stereo not drawn),-50.5
10,OC1/C(=C/c2ccccc2F)N2CCC1CC2 (stereo not drawn),10.5
11,COc1ccc(NC(=O)CSc2ccc(-c3sc(C)nc3C)nn2)cc1,14.4
12,CCOC(=O)c1cc(-c2c(Cl)cccc2Cl)no1,11.2
13,C/C=C(\CS(=O)(=O)c1ccccc1)S(=O)(=O)c1ccccc1,-1.47
14,Cc1occc1C(=O)N1CCN(S(C)(=O)=O)CC1,7.58
15,CSCC(C)N1CCC(CO)(CCc2ccccc2)CC1 (stereo not drawn),-29.4
16,CCn1cc(S(=O)(=O)Nc2ccc3c(c2)OCCO3)cn1,35.4
17,Cc1nc(C)c(-c2csc(Nc3ccc(O)cc3C)n2)s1,-3.69
18,COc1cc2ccccc2cc1C(=O)OCC(=O)N(C)c1c(N)n(Cc2ccccc2)c(=O)[nH]c1=O,3.29
19,Cc1cc(C(=O)N/N=C/c2cc(Br)cc([N+](=O)[O-])c2O)c2ccccc2n1,-5.48
20,Cc1ccc(C)c(S(=O)(=O)N2CCN(CC(=O)N3CCc4ccccc4C3)CC2)c1.O=C(O)C(=O)O,-25.9
21,CC(Nc1cc(=O)n(C)c(=O)[nH]1)c1ccccc1 (stereo not drawn),8.44
22,Cl.O=C(CN1CCN(C2CCCCC2)CC1)NCCC1=CCCCC1,-39.8
23,CCc1cc(SC#N)cc(C)c1N,7.52

row,Structure (SMILES),"hERG current change (%, negative = inhibition) at 10uM [%]"
1,COc1ccc(S(=O)(=O)Nc2c(C)n(C)n(-c3ccccc3)c2=O)cc1,-2.18
2,Cn1cc(CCC(=O)NCc2cccc(Cl)c2)c2ccccc21,-4.57
3,O=C1C2C3C=CC(C2C(=O)N1c1cccc(O)c1)C1C2C(=O)N(c4cccc(O)c4)C(=O)C2C31 (stereo not drawn),6.6
4,O=C(CN1C(=O)S/C(=C\c2ccccc2)C1=O)NCCCn1ccnc1,-23.4
5,CCCCc1ccc(NC(=S)NCCN2CCOCC2)cc1,-39
6,CSc1ccccc1C(=O)NCCSc1ccccc1,-12.2
7,O=C(CNC(=O)c1cccc(Br)c1)N/N=C/c1ccc[nH]1,22.5
8,Clc1ccccc1CN1CCN(/N=C/C=C/c2ccco2)CC1,5.7
9,OCCN1CCN(CCCN2c3ccccc3Sc3ccc(Cl)cc32)CC1,-49.3
10,COc1cccc(CNc2ccc(C)c(Cl)c2)c1,24.8
11,Cc1c(C(=O)N(Cc2nccn2C)C(C)C)oc2c(F)cccc12,-22.3
12,COc1cc2c(cc1OC)CN(CC(=O)Nc1ccc(Cl)cc1Cl)CC2,-11.7
13,N#CCCN(C(=O)COC(=O)c1cc(=O)c2ccccc2o1)c1ccccc1,5.03
14,CCCCNC(=O)O[C@H]1C[C@@H]2CCN3C(=O)CCC(C)(C)[C@H](C1)[C@H]23,-23.5
15,COc1cc(/C=N/n2cnc3c(sc4nc(C)cc(C)c43)c2=O)ccc1O,13.5
16,Brc1cccc(-c2nnco2)c1,2.43
17,Cc1ccc(NC(=O)Cn2c(=O)oc3ccccc32)c(C)c1,16.1
18,O=C1CCCN1CCCNc1ccc(S(=O)(=O)N2CCCCC2)cn1,-8.92
19,COc1cc(NC(=O)COC(C)=O)c(C)cc1[N+](=O)[O-],24
20,O=C1NC(Cc2c[nH]c3ccccc23)C(=O)N1Cc1cccc2ccccc12 (stereo not drawn),11.4
21,COc1ccc(NC(=O)N(Cc2cccnc2)Cc2ccccc2Cl)c(OC)c1,-25.1
22,CCOc1cc(/C=C/C(=O)N(CC)CC(=O)NCc2cccs2)cc(Cl)c1OC,-27.7
23,O=C(NC(Cc1ccccc1)C(=O)O)C1CCN(S(=O)(=O)c2ccccc2C(F)(F)F)CC1 (stereo not drawn),17.3

row,Structure (SMILES),"hERG current change (%, negative = inhibition) at 10uM [%]"
1,O=C(Nc1ccc2c(c1)oc1ccccc12)c1cccnc1,14.1
2,CN(c1cccc(NC(=O)c2ccccc2N(Cc2ccccc2)S(C)(=O)=O)c1)S(C)(=O)=O,5.32
3,CN1CCN(C(=O)COc2ccc(Oc3ccccc3)cc2)CC1,-15.2
4,O=C1N(Cc2cccnc2)C[C@@H]2C[C@@H](c3ccc(C(F)(F)F)cc3)N3CCC[C@@]123,-53.9
5,COc1ccc(-c2nnc(NC(=O)C3=COCCO3)o2)cc1,7.85
6,Cc1ccc(C(=O)N2CCN(c3ccccc3)CC2)cc1S(=O)(=O)N1CCOCC1,-16.5
7,CCCOc1ccc(CNC(=O)Cn2ncc3ccccc32)cc1,-16.5
8,C/[N+]([O-])=C\c1cccc(OCCN2CCN(c3ncc(C(F)(F)F)cc3Cl)CC2)c1,-25.9
9,O=C(NC(NCC1CCCO1)C(Cl)(Cl)Cl)c1cccc2ccccc12 (stereo not drawn),-18.8
10,Cc1csc(SCC(=O)Nc2cccc(S(=O)(=O)N3CCOCC3)c2)n1,-6.13
11,COc1cc(NC(=S)Nc2cccnc2)cc(OC)c1,6.54
12,CCc1nn(CCCC(=O)NCc2ccccc2C)c(=O)c2cc3occc3n12,-12.5
13,CN1CCc2cc(Cl)c(O)cc2[C@@H](c2ccccc2)C1.Cl,-56
14,COc1cc(OC)c(C2N(c3ccccn3)C(=O)C3CCCN32)cc1OC (stereo not drawn),13.8
15,COc1ccc(NC(=O)CSC2CCCCC2)cc1,-18.4
16,CCC(CC)NC(=O)Nc1ccc(C)cc1,16.3
17,O=C(N/C(=C/c1ccco1)C(=O)N1CCc2ccccc21)c1ccco1,-13
18,CC12CCC(C(=O)Nc3cc(F)ccc3F)(CC1=O)C2(C)C (stereo not drawn),-5.84
19,COc1ccccc1-c1ccc(NC2CCCCC2)nn1,-45.9
20,Cc1ccc(CSc2nc3sc(C)c(C)c3c(=O)n2Cc2ccco2)cc1,-6.19
21,O=C(CN(CC1CCCO1)C(=O)CNS(=O)(=O)c1ccc(Cl)cc1)NC1CCCC1 (stereo not drawn),6.73
